Data published in the RNAGym collection of RNA variant scans (doi:10.1073/pnas.2313332121).
Variants at the floor of the assay are shown more often than the library holds them.

B1: TPR 5TU (parent)
chain: GGAUCUUCUCGAUCUAACAAAAAAGACAAAUCUGCCACAAAGCUUGAGAGCAUCUUCGGAUGCAGAGGCGGCAGCCUUCGGUGGCGCGAUAGCGCCAACGUUCUCAACUAUGACACGCAAAACGCGUGCUCCGUUGAAUGGAGUUUAUCAUG

Variants of: B1
Test: polymerase ribozyme fitness, log enrichment relative to wild type (log ratio); higher = more active; in vitro selection for triplet polymerase activity
Summary of the method: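 Mutant libraries of each subunit of a heterodimeric triplet polymerase ribozyme were built by PCR and transcribed. Each library went through one round of in vitro selection in triplicate: annealing with biotinylated primer, partner subunit and triplets, frozen incubation at −7 °C, gel excision of extended constructs, streptavidin-bead capture and RT-PCR. Input and output libraries were Illumina-sequenced; only genotypes with ≥10 input reads and ≥1 read per output were kept. Fitness is log2(genotype enrichment/wild-type enrichment), using inverse-variance-weighted replicate averages.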
With GGAUCUUCUCGAUCUAACAAGAAAGACAAAUCUGCCACAAAGCUUGAGAGGAUCUACGGAUGCAGAGGCGGCCGCCUUCGGUGGCGCGAUAGCGCGAACGUUCUCAACUAUGACACGCUGAAGGCGUGCUCCGUUGAAUGGAGUUUAUCAUG [A21G C51G U56A A73C C96G A119U A120G C123G] the “polymerase ribozyme fitness (log ratio)” value was at most -4.2. In the case of GGAUCUUCUCGAUCUAACAAGAAAGACAAAUCUGCCACAAAGCUUGAGAGUAUCUUCGAAUGCAGAGGCGGCAGCCUUCGGUGGGGCGAUAGCGCCAACGUUCUCAACUAUGACACGCAAAACGCGUGCUCCGUUGUAUGGAGUUUAUCAUG [A21G C51U G59A C85G A137U], the “polymerase ribozyme fitness (log ratio)” value is reported as at most -4.2. With GGAUCUUCUCGAUCUAACAAGAAAGACAAAUCUGCCACAAAGCUUGAGAGCAUAUUCGGAUGCAGAGGCGGCGGCCUUCGGUGGCGUGAUAGCGCUAACGUUCUCAACUAUGACACGCAAAACGCGUGCUCCGUUGAAUGGAGUUUAUCACG [A21G C54A A73G C87U C96U U151C] the “polymerase ribozyme fitness (log ratio)” value was at most -4.2. In the case of GGAUCUUCUCGAUCUAACAAGAAAGACAAAUCUGCCACAAAGCUUGAGAGCAUAUUCGGAUGCAGAGGCGGCAGCCUUCGGUUGCGAGAUAGCGCUAACGUUCUCAACUAUGACACGCAAACCGCGUGCUCCGUUGAAUGGAGUUUAUCAUG [A21G C54A G83U C87A C96U A122C], the “polymerase ribozyme fitness (log ratio)” value is reported as at most -4.2. In the case of GGAUCUUCUCGAUCUAACAAGAAAGACAAAUCUGCCACAAAGCUUGAGAGCAUCUUCGGAUGCAGAGGCGGCAGCCUUCGGUGGAGCGAUAGCGCCAACGUUCUCAACUAUGACACGCAAAACGCGUGCUCCGUUGAAUGGAGUUUAUCAUG [A21G C85A], the “polymerase ribozyme fitness (log ratio)” value is reported as -1.12. For GGAUCUUCUCGAUCUAACAAGAAAGACAAAUCUGCCACAAAGCUUGAGAGCAUCUUCGGAUGCAGAGGCGGCAGCCUUCGGUGGCGAGAUAGCGCCAACGUUCUCAACUAUGUCACGCAAAACGCGUGCUCCGUUGAAUGAAGUUCAUCAUG [A21G C87A A113U G141A U146C], the “polymerase ribozyme fitness (log ratio)” value was at most -4.2. With GGAUCUUCUCGAUCUAACAAGAAAGACAAAUCUGCCACAAAGCUUGAGAGCAUCUUCGGAUGCAGAGGCGGCAGCCUUCGGUGGCGCGAUAGCGCCAACGUUCUCAACUAUGACAGGCAAAACGCGUGCUCCGUUGAAUGGAGUUUAUCAUG [A21G C116G] the “polymerase ribozyme fitness (log ratio)” value was 1.2. With GGAUCUUCUCGAUCUAACAAGAAAGACAAAUCUGCCACAAAGCUUGAGAGCAUCUUCGGAUGCAGAGGCGGCAGCCUUCGGUGGCGCGAUAGCGCCAACGUUCUCAACUAUGACACGCAAAACGCGUGCUCGGUUGAAUGGAGUUUAUCAUG [A21G C132G] the “polymerase ribozyme fitness (log ratio)” value was -3.9. With GGAUCUUCUCGAUCUAACAAGAAACACAAAUCUGCCACAAAGCUUGAGAGUAUCUUCGGAUGCAGAGGCGGCAGCCUUCGGUGGCGCGAUAGAGCCAACGUUCUCAACUAUGACACGCAAAACGCGUGCUCCGUUGAAUGGAGUUUAUCAUG [A21G G25C C51U C93A] the “polymerase ribozyme fitness (log ratio)” value was at most -4.2. With GGAUCUUCUCGAUCUAACAAGAAAGACAAAUCUGCCACAAAACUUGAGCGCAUCUUCGGAUGCAGUGGCGGCAGCCUUCGGCGGCGUGAUAGCGCCAACGUUCUCAACUAUGACACGCAAAACGCGUGCUCCGUGGAAUGGAGUAUAACAUG [A21G G42A A49C A66U U82C C87U U135G U145A U148A] the “polymerase ribozyme fitness (log ratio)” value was at most -4.2. For GGAUCUUCUCGAUCUAACAAGAAAGACAAAUCUGCCACAAAACUUGAGACCAUCUUCGGAUGCAGAGGCGGCAGCCUUCGGUGGCGCGAUAGGGCCAACGUUCUCAACUAUGACACGCAAAACGCGUGCUCCGUUUAAUGGAGUUUAUCAUG [A21G G42A G50C C93G G136U], the “polymerase ribozyme fitness (log ratio)” value was at most -4.2. In the case of GGAUCUUCUCGAUCUAACAAGAAAGACAAAUCUGCCACAAAUCUUGAGAGCAUCUUCGGGUGCAGAGGCGGCAGCCUUCGGUGGCGUGAUAGCGCCAACGUUCUCAACUAUGACACGCAAAACGCGCGCUCCGUUGAAUUGAGUUUAUCAUG [A21G G42U A60G C87U U127C G140U], the “polymerase ribozyme fitness (log ratio)” value is reported as at most -4.2. For GGAUCUUCUCGAUCUAACAAGAAAGACAAAUCUGCCACAAAUCUUGAGAGCAUCUUCGGAUGCAGUGGAGGCAGCUUUCGGUGGCGCGAUAGCGCCAACGUUCUCAACUAUGACACGCAAAACGCGUGCUCCGUUGAAUGGAGUUUAUCAUG [A21G G42U A66U C69A C76U], the “polymerase ribozyme fitness (log ratio)” value was at most -4.2. With GGAUCUUCUCGAUCUAACAAGAAAGACAAAUCUGCCACAAAUCUUGAGAGCAUCUUCGGAUGCAGAGGCGGCAGCCUUCGGUGGCGCGAUAGCGCUAACGUUCUCAACUAUGACACGCAAAACGCGUGCUCCGUUUAAUGGAGUUUAUCAUG [A21G G42U C96U G136U] the “polymerase ribozyme fitness (log ratio)” value was at most -4.2. For GGAUCUUCUCGAUCUAACAAGAAAGACAAAUCUGCCACAAAGCUUACGAGACUCUUCGGAUGCAGAGGCGGUUGCCUUUGGUGGCGCGAUAGCGCCAACGUUCUCAAGUAUGACAGGCAAAACGCGUGCUCCGUUGAAUGGAGUUUAUGAUG [A21G G46A A47C C51A A52C C72U A73U C79U C108G C116G C149G], the “polymerase ribozyme fitness (log ratio)” value was at most -4.2. With GGAUCUUCUCGAUCUAACAAGAAAGACAAAUCUGCCACAAAGCUUGAAAGCAUCUUCGGAGGCAGAGGCGGCAGCCUUGGGUGGCGCGAUAGGGCCAACGUUCUCAACUAUGACAGGCAAAACGCGUGCUCCGUUGAAUGGUAUUUAUCAUG [A21G G48A U61G C79G C93G C116G A142U G143A] the “polymerase ribozyme fitness (log ratio)” value was at most -4.2. In the case of GGAUCUUCUCGAUCUAACAAGAAAGACAAAUCUGCCACAAAGCUUGAUAGCAUCUUCGGAUGCAGAGGCGGCAGCCUUCGGUGGCGGGAUAGCGCCAACGUUCUCAACUAUGACACGCAAAACGCGUGCUCCGUUGAAUGGAGUUUAUCAUG [A21G G48U C87G], the “polymerase ribozyme fitness (log ratio)” value is reported as at most -4.2. In the case of GGAUCUUCUCGAUCUAACAAGAAAGACAAAUCUGCCACAAAGCUUGAGAACAUCUUCGGAUGGAGAGGAUGCAGCCUUCGGUGGCGCGAUAGCGCCAACGUUCUCGUCUAUGACACGCAAAACGCGUGCUCCGUUGAAUGGAGUUUAGCAUG [A21G G50A C63G C69A G70U A106G A107U U148G], the “polymerase ribozyme fitness (log ratio)” value is reported as at most -4.2. With GGAUCUUCUCGAUCUAACAAGAAAGACAAAUCUGCCACAAAGCUUGAGACCAUCUACGGAUGCAGAGGCGGCAGCAUUCGGUGGCGCGAUAUCGCCAACGUUCUCAACUAUGACACGCAAAACGCGUGCUCCGUUGAAUGGAGUUUAUCAUG [A21G G50C U56A C76A G92U] the “polymerase ribozyme fitness (log ratio)” value was at most -4.2.
